# From PubChem BioAssay AID686970 (National Center for Advancing Translational Sciences (NCATS), 2013)
# The campaign covered roughly 360,000 compounds. About 6,000 (1.7%) were called active. Inconclusive results, whose numbers are uncertain, are shown with a selection of clear calls. The call rests on the fitted dose curve; in most records, active means well fitted cell-killing curve with a large enough effect; inconclusive means small, poorly fitted or top-dose-only effect, or effect the other way; inactive means flat fitted curve, though single readings scatter. No potency is given beside an inconclusive call; the fits are too rough.
# Experiment: qHTS for induction of synthetic lethality in tumor cells producing 2HG: qHTS for the HT-1080-NT fibrosarcoma cell line;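 further: NT is the 2HG producing partner of a matched IDH1 knockdown line; nearly all actives have a fitted effect of over 55% in size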;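 on activity, negative = less viability: 0% = DMSO-treated cells and -100% = media-only wells without cells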
# Settings: HT-1080-NT fibrosarcoma viability, CellTiter-Glo ATP luminescence, 48 h; activity, negative = less viability: at 46.1 µM (top of the series) unless noted
# Summary of the method: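 Viability by CellTiter-Glo luminescence after 48 h compound exposure at 37C of HT-1080-NT cells (750/well, RPMI, 5% FBS). % activity scaled between DMSO wells and medium-only wells, then curve-fitted and categorized by curve class.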
# Potency means the concentration at half of the fitted maximal effect; tags describe the fitted curve by direction and shape.
Structure (SMILES),Potency,"activity, negative = less viability"
N/C(=N\S(=O)(=O)c1cc(C(F)(F)F)cc(C(F)(F)F)c1)c1ccc(Cl)cc1,"inconclusive [cytotoxic, single point]",
CC(C)CC(=O)Nc1c2c(nn1-c1ccc(F)cc1)CS(=O)(=O)C2,,inactive: 6.67%
CCOC(=O)N1CCN(S(=O)(=O)c2ccc(C(=O)Nc3nnc(C)o3)cc2)CC1,"inconclusive [rising, single point]",
CC(=O)C[C@@H](O)CC(=O)[C@@H]1OC(=O)[C@H](C)C/C=C\Cc2ccccc21,,inactive: -21.2%
Cc1ccsc1/C=C1\SC(=S)N(CC2CCCO2)C1=O (stereo not drawn),"inconclusive [rising, single point]",
COCCNc1nc(NCCCN2CCCC2=O)c2sc(-c3ccccc3)cc2n1,"inconclusive [cytotoxic, single point]",
COc1ccc(S(=O)(=O)NC(=O)C2(C)CCN2C(=O)Cc2ccccc2Cl)cc1OC (stereo not drawn),,inconclusive: 13.9%
CCOC(=O)C1(C)CCCN(C(=O)c2c(F)cccc2F)C1 (stereo not drawn),"inconclusive [rising, single point]",
CCOc1ccc(C(=O)Nc2ccc(C(F)(F)F)n(C)c2=O)cc1,"inconclusive [rising, partial curve]",
Fc1ccc(F)c(NC(=S)NCCc2ccccc2)c1,"inconclusive [cytotoxic, single point]",
CCc1ccc(/C=C/C(=O)c2cc(Br)ccc(=O)c2O)cc1,active: 20.6 µM,
CC(C)(C)NC(=O)NC(=O)Cn1ccsc1=N,,inconclusive: 36.5%
CC(C)(C)c1ccc(OCc2ccc(C(=O)N3CCOCC3)o2)cc1,"inconclusive [cytotoxic, single point]",
Cc1ccc(-n2cc(CN(C)Cc3ncc[nH]3)c(-c3cccc(C)c3)n2)cc1,active: 18.4 µM,
COc1ccc(N=[N+]([O-])c2ccc(OC)cc2)cc1,,inactive: 8.63%
CC1CC(C)(C)CC2(C1)NC(=O)N(CC(=O)N1CCN(Cc3ccc(C#N)cc3)CC1)C2=O (stereo not drawn),"inconclusive [cytotoxic, single point]",
CC(C)=CCC12Oc3cc(O)ccc3C1(O)Oc1cc(O)c([C@H]3C=C(C)CC(c4ccc(O)cc4O)[C@H]3C(=O)c3ccc(O)cc3O)c(O)c1C2=O (stereo partly drawn),"inconclusive [cytotoxic, single point]",
COc1ccccc1NS(=O)(=O)c1ccc2oc(SCc3ccc(F)cc3)nc2c1,,inconclusive: -33% [cytotoxic]
CC(C)(C)c1ccc(Oc2ccc(NC(=O)c3ccco3)cn2)cc1,active: 18.4 µM,
COc1ccc2nc(C)cc(Sc3nc4ccccc4s3)c2c1,active: 10.3 µM,
CC(Oc1cc2oc(=O)c3c(c2cc1Cl)CCC3)C(=O)NCc1cccnc1 (stereo not drawn),"inconclusive [rising, single point]",
COC(=O)[C@@]12CCCCN1[C@H](c1ccc(-c3ccc4c(c3)OCO4)cc1)[C@H]1C(=O)N(C)C(=O)[C@H]12,,inactive: 4.18%
COc1cc(-c2coc3c(C(=O)NCc4ccccc4)cccc23)ccc1O,active: 18.4 µM,
Cc1cccc(C(=O)N[C@H](C(=O)Nc2nc3ccccc3[nH]2)C(C)C)c1,active: 5.8 µM,
CCn1c2ccccc2c2cc(/C=N/NC(=O)c3ccncc3)ccc21,,inactive: -21.3%

Structure (SMILES),Potency,"activity, negative = less viability"
CCOc1ccc(CCNC(=O)CS(=O)(=O)Cc2nc(-c3cccc(OC)c3)oc2C)cc1,"inconclusive [cytotoxic, single point]",
O=C(CCl)NCc1c(Cl)cccc1-n1cccc1,"inconclusive [cytotoxic, single point]",
O=C(Nc1ccc(Cl)cc1)c1csc([C@@H]2O[C@H](CO)[C@@H](O)[C@H]2O)n1,,inconclusive: 35.7%
CC(O)(c1ccc(F)c(F)c1)c1nc(-c2cnc3ccccc3c2)cs1 (stereo not drawn),"inconclusive [cytotoxic, single point]",
CC(C)CN(C(=O)COC(=O)Cc1ccc(Cl)cc1)c1c(N)n(Cc2ccccc2)c(=O)[nH]c1=O,active: 25.9 µM,
O=C1CC(c2ccc(F)cc2)c2cc3c(cc2N1)CCC3 (stereo not drawn),"inconclusive [cytotoxic, single point]",
CC(C)(C)CC(C)(C)NC(=O)CSCC(=O)Nc1ccc2ccccc2c1,active: 15.8 µM,
CC1CN(S(=O)(=O)c2ccc(C(=O)NCCCn3ccnc3)cc2)CC(C)O1 (stereo not drawn),active: 2.06 µM,
CCOC(=O)C(C)Oc1cccc2c(=O)n(CC(=O)N3CCN(C(=O)OCC)CC3)ccc12 (stereo not drawn),,inactive: 22.6%
CC1=NN(c2ccc(F)cc2)C(=O)C1C(c1cccc(O)c1)c1c(C)[nH]n(-c2ccc(F)cc2)c1=O (stereo not drawn),"inconclusive [cytotoxic, single point]",
O=C(c1ccccc1Br)N1CCN(c2ccccn2)CC1,,inactive: -18.3%
CCCC(=O)N1CCN(c2ccc(NC(=S)NC(=O)CC)cc2)CC1,,inactive: 22.2%
CCN(CC)CCCNC(=O)/C=C/C(=O)O,,inactive: -3.8%
COc1ccc(O)c(/C=N/NC(=O)c2c(C)nnn2-c2nonc2N)c1,"inconclusive [cytotoxic, full curve, poor fit]",
COc1cc(/C=N/Nc2nc(Nc3ccc(C)cc3)nc(-n3nc(C)cc3C)n2)cc(OC)c1OC,active: 4.47 µM,
O=c1[nH]c2ccc(S(=O)(=O)Nc3ccc(Br)cc3)cc2[nH]1,"inconclusive [cytotoxic, single point]",
CCOc1ccc(S(=O)(=O)Nc2cccc(OC)c2)cc1,"inconclusive [cytotoxic, single point]",
O=C(NCc1cccs1)c1nc2c(nnn2Cc2ccccc2Cl)c(=O)[nH]1,active: 4.61 µM,
Clc1nssc1=Nc1ccc(Br)cc1,active: 16.4 µM,
O=C(Nc1ccccc1C(=O)Nc1nccs1)c1ccccc1,"inconclusive [cytotoxic, single point]",
CN1CCCC(n2nc(Cc3ccc(Cl)cc3)c3ccccc3c2=O)CC1 (stereo not drawn),active: 5.17 µM,
COc1ccc(-c2c([C@H]3[C@@H]4C=CCC[C@@]4(C)C(=O)N3Cc3ccccc3)ccc3ccccc23)cc1OC,"inconclusive [cytotoxic, single point]",
O=C(Nc1ccc(Br)cc1)c1cccc(S(=O)(=O)Nc2cnc3ccccc3c2)c1,"inconclusive [cytotoxic, single point]",
Cc1cc(=O)oc2cc(OCC3CC(c4ccc(N(C)C)cc4)=NO3)ccc12 (stereo not drawn),,inactive: -0.291%
COCCN(Cc1nnc(-c2cccs2)o1)C(=O)CN1C(=O)NC2(CCCCC2)C1=O,,inactive: -3.28%

Structure (SMILES),Potency,"activity, negative = less viability"
O=C(NC1(Cc2ccccc2)CCN(Cc2ccc(-c3ccccc3)cc2)C1=O)c1ccccc1 (stereo not drawn),"inconclusive [cytotoxic, single point]",
CC(C)COC(=O)c1cccc2c1-c1ccccc1/C2=N\O,"inconclusive [cytotoxic, single point]",
Cc1ccc(NC(=O)CCl)cc1S(=O)(=O)N1CCCCCC1,active: 16.4 µM,
COc1ccc(N(CC(=O)N2CCN(Cc3ccccc3)CC2)S(=O)(=O)c2ccccc2)cc1,,inactive: 4.32%
COc1ccc2cc(-c3csc(-c4cccnc4)n3)ccc2c1,,inactive: 29.2%
O=C(C[C@H]1C/C=C\CC[C@H](Cc2ccc(F)cc2)C(=O)O[C@H](c2ccccc2)CNC1=O)N[C@H](CO)Cc1ccccc1,"inconclusive [cytotoxic, single point]",
CN1CCC2(CC1)Nc1nc(SCc3ccc(Cl)cc3)nn1C1=C2CN(C)CC1,active: 25.9 µM,
O=C(CSC1=NC2(CCCCCC2)N=C1c1ccccc1)Nc1ccc2c(c1)OCCO2,"inconclusive [cytotoxic, single point]",
COc1ccc(CCN(CC(=O)NC(C)(C)C)C(=O)Cn2nnc(-c3ccc(C)o3)n2)cc1OC,,inactive: -5.82%
O=C(COc1ccccc1O)NNc1ccccc1,active: 2.31 µM,
CC1(C(=O)Nc2cccc(Oc3ccccc3)c2)CCN1Cc1cccc2c1OCO2 (stereo not drawn),"inconclusive [cytotoxic, partial curve, poor fit]",
CCc1nc2ccc(C(=O)NCc3ccc4c(c3)OCO4)cn2c1N(CCC(C)C)CCN(C)C,active: 20.6 µM,
Cc1[nH]n(-c2ccccc2)c(=O)c1/C=N/O,"inconclusive [cytotoxic, single point]",
CSc1ccccc1OCc1cc(C(=O)NCCc2nc(C)cc(C)n2)no1,,inactive: 5.42%
Cc1nc2c(OCCC3CCCCC3)cccn2c1N(C)C(=O)CCC1CCCC1,"inconclusive [cytotoxic, single point]",
CCOc1cc(CNCc2cc(OC)cc(OC)c2)ccc1OC,"inconclusive [cytotoxic, single point]",
C=Cc1ccc(Cn2c(C)c(C(=O)NCc3cccc(C)c3)sc2=O)cc1,,inactive: -20.7%
CCOC(=O)C1=C(C)NC(SCC(=O)O)=C(C#N)C1c1ccco1 (stereo not drawn),,inactive: 15%
CCCCn1nnnc1C(c1ccccc1)N1CCN(c2c(Cl)cncc2Cl)CC1 (stereo not drawn),"inconclusive [cytotoxic, partial curve]",
CC(O)(c1cccnc1)c1nc(-c2ccc3ccccc3c2)cs1 (stereo not drawn),"inconclusive [cytotoxic, single point]",
O=C(CSc1nc2ccccc2o1)Nc1nc2c(s1)CCCC2,"inconclusive [cytotoxic, single point]",
Cc1cnn(C(=O)c2cc(-c3ccccc3)nc3ccccc23)c1,,inactive: 4.15%
CCOc1ccc2nc(NC(=O)NC3CCCCC3)sc2c1,,inactive: 7.66%
